SMILES strings stand for the structures. Whole data set: some 13,000 compounds, median “IFI” near 4, cut for the highest 2% near 17. This is one part of the list.

The experiment is described as follows: GSK_TCMDC: Inhibition Frequency Index (IFI). The number of non-kinase HTS assays where a compound showed > 50 % inhibition, expressed as a percentage of the number of such assays in which the compound was tested (-0 is zero). Format: functional.
`Fc1ccc(Nc2ccnc3cc(-c4cccc(CN5CCCCC5)c4)ccc23)c(Cl)c1` had an IFI of 0.73%.

Take `CCN1CCC(N(Cc2ccc(-c3ccc(Cl)cc3)cc2)C(=O)Cn2c(CCc3cccc(F)c3F)cc(=O)c3ccccc32)CC1`: the IFI was 14.1%.

The compound `COc1ccc(NC(=O)Nc2cccc(-c3ccncc3)c2)cc1N1CCN(C)CC1` returned an IFI of 0.73%.

In turn, `Cc1nc(-c2nc(NCc3ccncc3)ncc2-c2ccsc2)sc1C` gave an IFI of 6.9%.

As to `COc1ccc(NC(=O)Nc2ccc(-c3ccncc3)c(Cl)c2)cc1N1CCN(C)CC1`, the IFI was 4.32%.

As to `c1ccc(CNCc2cccc(-c3ccc(-c4nc5ccccc5[nH]4)cc3)c2)cc1`, the IFI turned out to be 5.83%.

`CC(C)Oc1cccc(-c2ccc(C(=O)NCC3CCCN(Cc4cccc(C(F)(F)F)c4)C3)s2)c1` (stereo not drawn) returned an IFI of 3.64%.

`CCN1CCN(c2ccc(Nc3c4ccccc4nc4ccccc34)cc2)CC1` displayed an IFI of 6.52%.

`COc1ccc(CNC(=O)NC2CCN(c3ccnc(Nc4ccc(F)cc4)n3)C2)cc1` (stereo not drawn) showed an IFI of 7.58%.

On to `COc1ccc2nccc([C@@H](O)CN3CCC(NCc4ccc5c(c4)sc(=O)n5C)CC3)c2c1`, for which the IFI was 1.44%.

On to `Cn1c(Nc2cc(C(C)(C)C)on2)nc2cc(Nc3ccnc(Nc4cccc(CS(C)(=O)=O)c4)n3)ccc21`, for which the IFI turned out to be 2.83%.

In the case of `COc1ccccc1CNc1nc(Nc2ccccc2C)nc2ccccc12`, the IFI was 6.29%.

`CC(C)(C)OC(=O)c1c(NC(=O)/C=C/c2ccc(O)c(O)c2)sc2c1CCCC2` returned an IFI of 6.38%.

As to `Cc1ccc(C)c(-n2c(SCC(=O)Nc3ccc(C(N)=O)cc3)nnc2-c2cccc(Cl)c2)c1`, the IFI was 4.5%.

Regarding `Cc1c(-c2cccc(C(C)(C)NC3CCN(Cc4ccccc4)CC3)c2)cnc(N)c1C`, the IFI amounted to 2.99%.

`CN1CCN(CCCN(Cc2csc(-c3ccc(CNCc4ccccc4)cc3)n2)S(=O)(=O)c2cccc3cccnc23)CC1` showed an IFI of 6.9%.

The compound `Nc1cccc(CNCc2ccc(-c3cccc(-c4nc5cc(F)ccc5[nH]4)c3)cc2)c1` had an IFI of 7.77%.

`O=C(/C=C/c1ccc(Cl)c(Cl)c1)NCCCCCN1CCCN(C(=O)Nc2ccc(C(F)(F)F)cc2)CC1` gave an IFI of 10.7%.

In turn, `COc1ccc(NC(=O)c2cccc(Br)c2)cc1N1CCN(CCCCCCCN2CCN(c3cc(NC(=O)c4cccc(Br)c4)ccc3OC)CC2)CC1` displayed an IFI of 5.97%.

The compound `CNCCNCc1ccc(-c2ccc(-c3nc4ccccc4[nH]3)s2)cc1` returned an IFI of 8.91%.

With `Cc1cc(C(=O)Nc2ccc(-c3ccccc3)cc2)no1`, the IFI was determined as 0%.

Compound `CNCCNCc1cccc(-c2ccc(-c3nc4ccccc4[nH]3)cc2)c1` gave an IFI of 7%.

The compound `Cc1ccc(-c2nc3cc(C(=O)NC4CCC(N5CCCc6ccc(C#N)cc6C5)CC4)ccc3[nH]2)cc1` (stereo not drawn) showed an IFI of -0%.

In turn, `Oc1ccc2ccccc2c1C=NNc1nc(=Nc2ccccc2)[nH]c(=Nc2ccccc2)[nH]1` gave an IFI of 4.93%.

`COc1cccc(CNC(=O)[C@@H]2CN(C(=O)c3ccccc3)CCN2)c1` registered an IFI of -0%.

In turn, `N=C(N)NN=CC(=O)Nc1cc([N+](=O)[O-])cc([N+](=O)[O-])c1` returned an IFI of 0.75%.

In the case of `COc1cc(F)c2ncc(Cl)c(CCN3CCC(NCc4ccc5c(c4)NC(=O)CS5)CC3)c2c1`, the IFI was 7.3%.

Compound `c1ccc(-c2nc3ccccc3[nH]2)c(Nc2ccnc3cc(-c4nccs4)ccc23)c1` had an IFI of 7.14%.

As to `O=C(Nc1ccc2c(c1)OCCO2)c1cc(-c2cccnc2)nc2ccc(Cl)cc12`, the IFI turned out to be 0.87%.

On to `Cc1ccc(O)cc1Nc1ccnc2cc(-c3ccc(CN4CCCCC4)o3)ccc12`, for which the IFI was 2.9%.

In turn, `O=C(Nc1cccc(-c2nc3ccccc3s2)c1)c1ccccc1[N+](=O)[O-]` returned an IFI of 2.11%.

Regarding `COc1cc(CNCCCCCCNCc2cc(OC)cc3ccccc23)c2ccccc2c1`, the IFI was found to be 10.1%.

On to `CN(C)CCOc1cc(NC(=O)Nc2ccc(Oc3ccccc3)cc2)ccc1I`, for which the IFI worked out at 4.44%.

`Nc1ncc(-c2ccc(F)c(Cl)c2)c(N)n1` registered an IFI of 1.48%.

`C[C@H](Cc1ccc(S(=O)(=O)c2ccc(C[C@@H](C)NC[C@H](O)c3cccc(Cl)c3)cc2)cc1)NC[C@H](O)c1cccc(Cl)c1` yielded an IFI of 22.7%.

Compound `O=C(/C=C/c1ccc(Cl)c(Cl)c1)NCCCCCN1CCCN(C(=O)Nc2ccc(Br)cc2)CC1` gave an IFI of 6.71%.

For the compound `O=C(NCCCN1CCN(c2cccc(Cl)c2)CC1)c1ccc(-c2nc3cc(Cl)c(Cl)cc3[nH]2)c(F)c1`, the IFI turned out to be 0.74%.

`O=C(CCCc1ccccc1)Nc1cccc(N2CCC(N3CCN(c4ccccc4O)CC3)CC2)c1`: the IFI stood at 7.14%.

In turn, `Cc1ccc2[nH]c(-c3cc(-c4cccc(C#N)c4)cnc3N)nc2c1` registered an IFI of 7.14%.

`CCN1CCC(N(Cc2ccc(-c3ccc(C(F)(F)F)cc3)cc2)C(=O)Cn2c(CCc3cccc(F)c3F)nc(=O)c3ccccc32)CC1`: the IFI was found to be 10.3%.

Consider `O=C(Nc1ccc(OC2CCN(Cc3ccsc3)CC2)c(Cl)c1)c1ccco1`, for which the IFI is 4.55%.

The compound `Cn1cc(-c2ccnc3[nH]c(-c4cccc(CNC5CCC(O)CC5)c4)cc23)cn1` (stereo not drawn) yielded an IFI of 8.11%.

Regarding `CC1(C)NC(N)=NC(=N)N1OCc1cccs1`, the IFI turned out to be 1.43%.

`COc1cc(C=NN=c2cc(C)[nH]c3ccccc23)cc(OC)c1OC` came in with an IFI of 1.46%.

Consider `O=C(Nc1cccc(CN2CCCN(Cc3ccc(O)cc3)CC2)c1)c1ccc(Br)cc1`, for which the IFI was 1.52%.

Compound `CC(C)COc1ccc(Cl)cc1Cc1ccc(-c2nc3ccc(Br)cc3[nH]2)o1` returned an IFI of 19.8%.

The compound `c1ccc(Oc2ccc(Nc3ccnc4cc(-c5cccc(CN6CCOCC6)c5)ccc34)cc2)cc1` registered an IFI of 0.75%.

Regarding `COc1cc(NC(=O)N2CCOC(CCN3CCC(c4ccccc4)CC3)(c3ccc(Cl)c(Cl)c3)C2)cc(OC)c1OC` (stereo not drawn), the IFI worked out at 8.16%.

In turn, `COC(=O)c1ccccc1COc1ccc(CC2(NC(=O)[C@H](Nc3ccc(C#N)c4ccccc34)C(C)(C)C)CCCC2)cc1` displayed an IFI of 1.9%.

For the compound `O=C(Cc1cccc(Cl)c1)Nc1ccc(N2CCC(NCc3ccc4ncccc4c3)CC2)cc1`, the IFI is -0%.

`Cn1cnc(-c2ccc3c(c2)CCN(CCC2CCC(NC(=O)/C=C/c4ccc(F)cc4)CC2)CC3)c1` (stereo not drawn) came in with an IFI of 4.29%.

In the case of `COc1cccc(-c2ccc3c(-c4ccc(F)cc4)cnc(N)c3c2)c1`, the IFI turned out to be 6.2%.

Take `N=C(N)c1ccc(Nc2nc(Nc3ccc(-c4ccccc4)cc3)ncc2[N+](=O)[O-])cc1`: the IFI worked out at 8.65%.

The compound `O=C(c1ccc(-c2ccc(-c3nc4cc(C(F)(F)F)ccc4[nH]3)s2)cc1)N1CCCCC1CN1CCC(O)C1` (stereo not drawn) yielded an IFI of 6.14%.

On to `Cc1ccc(Nc2c3ccccc3nc3ccc(C)cc23)cc1`, for which the IFI was determined as 7.38%.

Turning to `CN1CCC(Oc2ccc(CN3CC[C@H](NC(=O)c4cc(F)cc(F)c4)C3)c3ccccc23)C1` (stereo partly drawn), the IFI stood at 6.29%.

`NC(=O)c1cccc(CNCc2ccc(-c3cccc(-c4nc5ccccc5[nH]4)c3)cc2)c1` came in with an IFI of 3.88%.

Consider `CCc1ccc(CN2CCC(CNC(=O)c3cc(-c4cccc(C(F)(F)F)c4)cs3)C2)cc1` (stereo not drawn), for which the IFI turned out to be 14%.

The compound `COc1ccc(CCNCCCCCCNCCc2ccc(Cl)c(Cl)c2)cc1OC` had an IFI of 2.88%.

`CCCC(=O)Nc1ccc(OCCCN(Cc2ccccc2F)c2ccc(C#N)c(C(F)(F)F)c2)cc1` displayed an IFI of 1.45%.

`COc1ccc2ncc(F)c(CCN3CC[C@@H](CNCc4nc5c(cc4C)SCC(=O)N5)C3)c2n1`: the IFI turned out to be 5.83%.

In the case of `Cc1ccc(-c2ccc(Cl)cc2Oc2cnc(N)nc2N)o1`, the IFI was 5.26%.

For `Cc1ccc(Nc2ccnc(Nc3ccc(F)c(Cl)c3)n2)cc1O`, the IFI stood at 6.25%.

In turn, `O=C(Nc1ccc(OC2CCN(Cc3ccccc3)CC2)c(Cl)c1)c1ccc(F)cc1` registered an IFI of 1.64%.

In turn, `Cc1cc(C)c(NC(=O)N2CCCN(CCCCCNC(=O)/C=C/c3ccc(Cl)c(Cl)c3)CC2)c(C)c1` had an IFI of 2.01%.

As to `Cc1cccc2nc(-c3cccc(-c4ccc(NC(=O)C(C)CN(C)C)cc4)c3)[nH]c12` (stereo not drawn), the IFI is 5.45%.

In turn, `CCCCCCCc1c2c(C)c(C(=O)OCC)nc-2cc2n1CC(C)=C2C` returned an IFI of 4.69%.

Take `CCN(CC)CCNc1cc(C)nc(NC(=N)Nc2ccc(Cl)cc2)n1`: the IFI is 3.79%.

Compound `c1ccc(CNCc2cccc(-c3ccc(-c4nc5ccccc5[nH]4)s3)c2)cc1` yielded an IFI of 3.92%.

Compound `COc1cccc(CNCC(C)(C)c2nc(-c3ccc(Cl)c(O)c3)c(-c3ccncc3)[nH]2)c1` registered an IFI of 5.8%.

As for `Cc1ccc(O)cc1Nc1ccnc2cc(-c3ccccc3)ccc12`, the IFI was found to be 10%.

In turn, `CCOc1c(N2CCN(CCCCNC(=O)c3ccc(NC(=O)c4ccc(Cl)cc4)cc3)CC2)ccc2ccccc12` showed an IFI of 5.31%.

The compound `CCC[C@@H](C(=O)NCCc1cccc(OC)c1)N1C(=O)c2c(ccc(OC)c2OC)C1C(=O)Nc1c(C)cccc1C` (stereo partly drawn) returned an IFI of -0%.

As to `Cc1ccnc(NC(c2cccc(OCc3ccccc3)c2)c2ccc3cccnc3c2O)c1` (stereo not drawn), the IFI came to 4.83%.

`Cc1cc(OCCCN2CCCCC2C)ccc1NC(=O)COc1ccc(Cl)cc1C(=O)c1cc(Cl)cc(C#N)c1` (stereo not drawn) yielded an IFI of 7.26%.

The compound `O=C(Nc1ccc2c(c1)CCC2)c1cccc(N2CCN(c3ccncc3)CC2)c1` gave an IFI of 7.14%.

Regarding `COc1ccc(CN2CCC(CNC(C)c3cccc4ccccc34)CC2)cc1` (stereo not drawn), the IFI came out at 12.9%.

`C=CCNc1cc(-c2ccccn2)nc(-c2ccccn2)n1` returned an IFI of 12.9%.

Compound `Cc1cccc2nc(-c3cccc(-c4cccc(C(=O)NCCc5cn(C)cn5)c4)c3)[nH]c12` gave an IFI of 3.74%.

`COc1ccccc1CNc1ncc(-c2ccsc2)c(-c2nccs2)n1`: the IFI is 3.41%.

`COc1ccccc1C1CCN(C2CCC(NC(=O)/C=C/c3cc(F)cc(C(F)(F)F)c3)CC2)CC1` (stereo not drawn) gave an IFI of 11.5%.

In the case of `NCCCNc1nccc(N2CCc3ncnc(Nc4ccc(OCc5cccc(F)c5)c(Cl)c4)c3C2)n1`, the IFI came to 12.5%.

`O=C(Cc1ccc[n+]([O-])c1)Nc1cccc(-c2cccc(-c3nc4cc(C(F)(F)F)ccc4[nH]3)c2)c1` registered an IFI of 1.82%.

Take `COc1ccc2nc(N3CCN(C(=O)OC(C)(C)C)CC3)nc(NCCCc3ccccc3)c2c1`: the IFI is 5.97%.

In turn, `CN1CCCc2ccc(NC(=O)Nc3ccc(-c4ccccc4)cc3)cc2C1` had an IFI of 7.02%.

Regarding `Cn1cnc(CCNC(=O)c2cccc(-c3ccc(-c4nc5cc(F)ccc5[nH]4)cc3)c2)c1`, the IFI is 3.81%.

On to `CC(C)(C)c1cc(C(=O)N2CCC(c3ccccn3)CC2)n(Cc2ccccc2)n1`, for which the IFI is -0%.

For the compound `O=C(Nc1cccc(C(F)(F)F)c1)c1cccc(S(=O)(=O)NCC2CCCN2CC2CCCCC2)c1` (stereo not drawn), the IFI is -0%.

For the origin of these results see ChEMBL document CHEMBL1157539, “Thousands of chemical starting points for antimalarial lead identification” (Nature, 2010).
